The other results are listed elsewhere or left out. The list includes weakly bound sequences.

The assay addresses MaxL homodimer (UniProt P61244). Description: universal protein-binding microarray (PBM). Conditions: PBS-based mixture, 10 nM His-tagged protein dimer, 2% milk, 200 ng/uL BSA, 50 ng/uL salmon testes DNA, 0.02% TX-100; detection with Alexa 488 anti-His …; high values mean tight binding; most listed sequences are background and not binding sites; double strand, one strand shown.
UniProt P61244, sequence (P61244 whole entry): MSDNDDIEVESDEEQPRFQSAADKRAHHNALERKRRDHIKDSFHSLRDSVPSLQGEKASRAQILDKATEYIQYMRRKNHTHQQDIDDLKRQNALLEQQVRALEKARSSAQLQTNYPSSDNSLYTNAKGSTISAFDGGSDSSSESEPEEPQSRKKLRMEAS
Turning to ATCAGTAC, the binding signal (normalized occupancy) worked out at 0.0777.

Consider ACGCCTGA, for which the binding signal (normalized occupancy) is 0.0735.

As to GTGAGTCA, the binding signal (normalized occupancy) turned out to be 0.0793.

Turning to ATCCCGCG, the binding signal (normalized occupancy) was 0.0782.

On to CACATCCC, for which the binding signal (normalized occupancy) came to 0.0838.

Consider ACCCACTG, for which the binding signal (normalized occupancy) was found to be 0.0719.

With GGGGTGGA, the binding signal (normalized occupancy) turned out to be 0.0834.

GCATTGCA: the binding signal (normalized occupancy) turned out to be 0.0792.

Regarding AAAATAAA, the binding signal (normalized occupancy) amounted to 0.0771.

Take GCCAATCC: the binding signal (normalized occupancy) came out at 0.0783.

As to GCCCTGAA, the binding signal (normalized occupancy) is 0.0713.

Take CCTTAAGC: the binding signal (normalized occupancy) worked out at 0.0673.

As to GGACTAAC, the binding signal (normalized occupancy) came out at 0.0743.

Regarding ATTGGACC, the binding signal (normalized occupancy) is 0.0748.

For the sequence GGAGTGAC, the binding signal (normalized occupancy) is 0.0765.

In the case of CCCTTGAG, the binding signal (normalized occupancy) turned out to be 0.0692.

Turning to CAACCGTA, the binding signal (normalized occupancy) worked out at 0.0753.

With AACATACG, the binding signal (normalized occupancy) worked out at 0.0835.

For the sequence ATCCGCGG, the binding signal (normalized occupancy) came out at 0.0697.

On to AGCTATTA, for which the binding signal (normalized occupancy) is 0.0767.

With ACTTACAG, the binding signal (normalized occupancy) is 0.0717.

As for ACCATACC, the binding signal (normalized occupancy) came out at 0.0814.

For the sequence ATACGAGC, the binding signal (normalized occupancy) is 0.0801.

Regarding CTGCATCA, the binding signal (normalized occupancy) was determined as 0.0784.

On to GCGGGCCC, for which the binding signal (normalized occupancy) stood at 0.0715.

GACTGTCA: the binding signal (normalized occupancy) is 0.0739.

Take GATTCTAC: the binding signal (normalized occupancy) stood at 0.0816.

Turning to ACTATCTC, the binding signal (normalized occupancy) worked out at 0.0739.

As to TCTACCCA, the binding signal (normalized occupancy) was determined as 0.0776.

On to AACGCCGG, for which the binding signal (normalized occupancy) is 0.0701.

With CATCGCGG, the binding signal (normalized occupancy) stood at 0.0705.

With GTACTAGA, the binding signal (normalized occupancy) was 0.0741.

Turning to CGTAGCGA, the binding signal (normalized occupancy) is 0.0668.

For TATTCTCA, the binding signal (normalized occupancy) came to 0.0871.

Turning to CTCAGATA, the binding signal (normalized occupancy) stood at 0.0717.

For the sequence TCGGTTCA, the binding signal (normalized occupancy) was determined as 0.0732.

With GCGGGGGA, the binding signal (normalized occupancy) was 0.0803.

For ATAGTCGC, the binding signal (normalized occupancy) was determined as 0.0765.

In the case of CTAGTCTC, the binding signal (normalized occupancy) came to 0.0733.

In the case of GGGTGCAA, the binding signal (normalized occupancy) was determined as 0.0755.

In the case of AGGTAATG, the binding signal (normalized occupancy) amounted to 0.0799.

As for ACAACAAT, the binding signal (normalized occupancy) was determined as 0.0771.

As for GCACGACC, the binding signal (normalized occupancy) was 0.0777.

Take CCACGCAC: the binding signal (normalized occupancy) came out at 0.0964.

Consider CTATAGAC, for which the binding signal (normalized occupancy) came out at 0.081.

In the case of ATCTTAAA, the binding signal (normalized occupancy) worked out at 0.0764.

With TAGTGAGA, the binding signal (normalized occupancy) stood at 0.0785.

Consider ATTGTGGA, for which the binding signal (normalized occupancy) is 0.0811.

As to ATCTGGTC, the binding signal (normalized occupancy) was found to be 0.0785.

Consider GAAGCTCC, for which the binding signal (normalized occupancy) turned out to be 0.0639.

With ATTAAAAA, the binding signal (normalized occupancy) was 0.0727.

For the sequence CAACACCC, the binding signal (normalized occupancy) came to 0.0807.

Turning to CGACGTAA, the binding signal (normalized occupancy) stood at 0.0689.

For the sequence AAAAGGAC, the binding signal (normalized occupancy) stood at 0.0745.

For GATGCGAA, the binding signal (normalized occupancy) is 0.0768.

Turning to ACGGTCTG, the binding signal (normalized occupancy) came to 0.0744.

As for CTACGTTC, the binding signal (normalized occupancy) turned out to be 0.0704.

For AACGTCTT, the binding signal (normalized occupancy) came out at 0.0728.

In the case of ATAGCTGC, the binding signal (normalized occupancy) stood at 0.0733.

With GAAATAAA, the binding signal (normalized occupancy) is 0.0763.

Consider ATGCTACA, for which the binding signal (normalized occupancy) was 0.0811.

For the sequence TAAGCTAA, the binding signal (normalized occupancy) amounted to 0.0791.

On to GCTCTACC, for which the binding signal (normalized occupancy) stood at 0.0705.

For ACATGTGG, the binding signal (normalized occupancy) stood at 0.209.

Regarding CAATAGAC, the binding signal (normalized occupancy) was 0.0726.

Regarding GGTCGTAC, the binding signal (normalized occupancy) turned out to be 0.0754.

On to CGTGGCAG, for which the binding signal (normalized occupancy) was determined as 0.0869.

On to CCTGACTC, for which the binding signal (normalized occupancy) came to 0.0726.

For the sequence CCGAGGAA, the binding signal (normalized occupancy) was determined as 0.0732.

As for AGGCCAAG, the binding signal (normalized occupancy) turned out to be 0.0714.

In the case of CAGGGCCG, the binding signal (normalized occupancy) was 0.067.

As to AGCATAAA, the binding signal (normalized occupancy) amounted to 0.0804.

For ATGTCCGG, the binding signal (normalized occupancy) was found to be 0.0748.

GTGCCCGA: the binding signal (normalized occupancy) turned out to be 0.0729.

For ACCTGGAA, the binding signal (normalized occupancy) worked out at 0.0771.

Consider GAGGTCTA, for which the binding signal (normalized occupancy) worked out at 0.074.

CCTGAATC: the binding signal (normalized occupancy) was determined as 0.0737.

Take ATTGTGTG: the binding signal (normalized occupancy) was 0.0839.

For the sequence AGTCAAAT, the binding signal (normalized occupancy) was determined as 0.0746.

CATAAACA: the binding signal (normalized occupancy) was determined as 0.0744.

For the sequence CTGGAGGC, the binding signal (normalized occupancy) was 0.0733.

Consider AAATCTCA, for which the binding signal (normalized occupancy) came out at 0.0773.

Regarding ATATACTA, the binding signal (normalized occupancy) stood at 0.087.

In the case of AAAAGGCT, the binding signal (normalized occupancy) was found to be 0.0703.

GAATATTA: the binding signal (normalized occupancy) is 0.0775.

With CTTGACGC, the binding signal (normalized occupancy) came to 0.0715.

Regarding CCTAATTC, the binding signal (normalized occupancy) turned out to be 0.0746.

Consider CGCAGGAC, for which the binding signal (normalized occupancy) was determined as 0.0705.

CCATAAGG: the binding signal (normalized occupancy) stood at 0.0874.

As for CAGGATGC, the binding signal (normalized occupancy) stood at 0.0729.

In the case of GGATGGAC, the binding signal (normalized occupancy) is 0.0771.

In the case of CTATACGC, the binding signal (normalized occupancy) is 0.0743.

For the sequence ATATATTG, the binding signal (normalized occupancy) came to 0.0866.

As to AGAATCCA, the binding signal (normalized occupancy) is 0.074.

For GACTGTGA, the binding signal (normalized occupancy) came to 0.0764.

For CTGGACCC, the binding signal (normalized occupancy) turned out to be 0.0697.

As to GCTGAGTA, the binding signal (normalized occupancy) was 0.0667.

GGTATACC: the binding signal (normalized occupancy) stood at 0.0747.

For the sequence CCGAGCGA, the binding signal (normalized occupancy) amounted to 0.0659.

As for ACGATCAC, the binding signal (normalized occupancy) is 0.0754.

In the case of CAAATAGA, the binding signal (normalized occupancy) is 0.0771.

As to CATGCGAA, the binding signal (normalized occupancy) worked out at 0.0898.

With AGGCATTA, the binding signal (normalized occupancy) was 0.0707.

ACGCTTGC: the binding signal (normalized occupancy) was found to be 0.0702.

With GTTAGCAA, the binding signal (normalized occupancy) came out at 0.0727.

As for AGACTCTC, the binding signal (normalized occupancy) worked out at 0.0766.

With AATGCAAT, the binding signal (normalized occupancy) came to 0.0742.

Regarding CAGCACAA, the binding signal (normalized occupancy) was 0.0753.

As for ATTTGCCG, the binding signal (normalized occupancy) came out at 0.0669.

Turning to ATATGGAA, the binding signal (normalized occupancy) turned out to be 0.0869.

For CTTCGATC, the binding signal (normalized occupancy) was determined as 0.0681.

Consider CTCAGCGC, for which the binding signal (normalized occupancy) was determined as 0.0701.

For CCGAGAGG, the binding signal (normalized occupancy) is 0.0685.

With AATCATCG, the binding signal (normalized occupancy) came to 0.0795.

Regarding ACGTTCAA, the binding signal (normalized occupancy) amounted to 0.0795.

For CCGGAAAG, the binding signal (normalized occupancy) was 0.0655.

Take ATCAGATA: the binding signal (normalized occupancy) was determined as 0.0785.

AGGTGGGC: the binding signal (normalized occupancy) worked out at 0.0818.

Consider GCGGTAGC, for which the binding signal (normalized occupancy) came to 0.0718.

For CGTTAACA, the binding signal (normalized occupancy) came out at 0.0785.

Take AACTACAT: the binding signal (normalized occupancy) worked out at 0.0852.

Consider CTTGATAC, for which the binding signal (normalized occupancy) was 0.0802.

For GTACGGCA, the binding signal (normalized occupancy) was 0.0724.

For CTACGCTA, the binding signal (normalized occupancy) is 0.0699.

With AGTACGCC, the binding signal (normalized occupancy) was determined as 0.0673.

Turning to ATAGTTGC, the binding signal (normalized occupancy) is 0.0808.

In the case of AAGAAAAC, the binding signal (normalized occupancy) was determined as 0.0699.

For TAGCCATA, the binding signal (normalized occupancy) stood at 0.0814.

For CCTATCCC, the binding signal (normalized occupancy) turned out to be 0.0801.

For the sequence AGCGACGC, the binding signal (normalized occupancy) stood at 0.0691.

Take GAAACCGC: the binding signal (normalized occupancy) came to 0.0706.

For the sequence CGTAAGTC, the binding signal (normalized occupancy) came to 0.0757.

On to CCAGGAAG, for which the binding signal (normalized occupancy) is 0.0703.

In the case of TTAAACAA, the binding signal (normalized occupancy) turned out to be 0.0715.

Regarding CAGCTGAA, the binding signal (normalized occupancy) stood at 0.0749.

On to TAAGTACA, for which the binding signal (normalized occupancy) was 0.0831.

Turning to CTCAACTA, the binding signal (normalized occupancy) was 0.0747.

On to CAAATATG, for which the binding signal (normalized occupancy) was determined as 0.0846.

Take AAATTATT: the binding signal (normalized occupancy) is 0.0751.

Regarding ACATTATG, the binding signal (normalized occupancy) is 0.0869.

With AGTTTCCG, the binding signal (normalized occupancy) worked out at 0.0674.

AGCTGCCC: the binding signal (normalized occupancy) was found to be 0.0668.

Turning to CATATATC, the binding signal (normalized occupancy) amounted to 0.0836.

With AACGATCG, the binding signal (normalized occupancy) was found to be 0.072.

Regarding CTAGCGCA, the binding signal (normalized occupancy) stood at 0.07.

Regarding AGAGGTTA, the binding signal (normalized occupancy) is 0.075.

For AAACTACT, the binding signal (normalized occupancy) was 0.0727.

With AGCGTGAT, the binding signal (normalized occupancy) amounted to 0.1.

Consider CGTGGGCC, for which the binding signal (normalized occupancy) worked out at 0.0805.

With GATGGAAC, the binding signal (normalized occupancy) came to 0.0776.

As to CAAGCTTA, the binding signal (normalized occupancy) worked out at 0.0669.

For the sequence ACCGCAAT, the binding signal (normalized occupancy) worked out at 0.0686.

For GTTGCGAA, the binding signal (normalized occupancy) was determined as 0.0704.

For CGTTATAC, the binding signal (normalized occupancy) was 0.0776.

For the sequence CGTCTGCA, the binding signal (normalized occupancy) worked out at 0.0724.

For the sequence CCCCAGTA, the binding signal (normalized occupancy) was 0.0805.

As for TGGGCACA, the binding signal (normalized occupancy) was found to be 0.079.

In the case of AGCGTCTC, the binding signal (normalized occupancy) was 0.0715.

Take AGGCGACG: the binding signal (normalized occupancy) came out at 0.0683.

Consider AGGCTAGA, for which the binding signal (normalized occupancy) turned out to be 0.0688.

For CTCCGCAG, the binding signal (normalized occupancy) came to 0.0709.

Take ACGACAAG: the binding signal (normalized occupancy) stood at 0.079.

Take TAGCGGGA: the binding signal (normalized occupancy) stood at 0.0705.

As for ACATTCTC, the binding signal (normalized occupancy) turned out to be 0.0767.

For ACCCCTAT, the binding signal (normalized occupancy) came out at 0.0844.

As for AAAACAGG, the binding signal (normalized occupancy) is 0.0733.

On to CAAGTGCA, for which the binding signal (normalized occupancy) worked out at 0.0781.

Turning to ACACCCAT, the binding signal (normalized occupancy) was found to be 0.0898.

GTCAGGAC: the binding signal (normalized occupancy) worked out at 0.0691.

As to AGCCTATG, the binding signal (normalized occupancy) is 0.0742.

As for CTCGCGGA, the binding signal (normalized occupancy) was 0.0788.

ATGAGACG: the binding signal (normalized occupancy) turned out to be 0.0745.
